# The other results are listed elsewhere or left out.
# B1: Si Bti9 1b-HA (Solanum lycopersicum) (protein)
# chain: MFESRPRSVLSLGVFVILVYLSSVPLPVNSQCNRGCDLALASFYVWRGSNLTLISEMFSTSIADIVSYNNRDNIPNQDSVIAGTRINIPFRCDCLNDGEVLGHAFPYRVKSGDTYDLVARNYSDLTTAQWMMKFNSYPENNIPNTVNLSVVVNCSCGNSDVSKDFGLFVTYPVRAEDNLTSVASAANVSEDIIRRYNPAAVSILDIGQGIIYIPGRDRNGNFPPLPTSTDGLSGGAKAPLFFNPAFLYKVVELKLAGRSRTSGYPYDVPDYAGYPYDVPDYALEVLFQ
# Columns and labels:
# Assay in all cases: glycan array binding signal (z-score within array); higher = stronger binding
# Conditions in all cases: glycan notation: IUPAC condensed, linker removed
# GlcNAc(b1-3)Man = molecular target: GlcNAc(b1-3)Man
# In short: (§1)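 Glycan array data came from 3228 arrays in the Consortium for Functional Glycomics database, and only arrays with an available protein sequence were kept. Glycan names were put into IUPAC-condensed notation, and columns mapping to the same glycan were averaged. The binding signal is a within-array Z-score, averaged across arrays of one protein sequence run at different concentrations or buffers and across linkers. A negative Z-score can be read as non-binding.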
# [1] = molecular target: GlcNAc(b1-3)[GlcNAc(b1-4)][GlcNAc(b1-6)]GlcNAc
# In short: as §1
# [2] = molecular target: GlcNAc(b1-3)[GlcNAc(b1-6)]Gal(b1-4)GlcNAc
# In short: as §1
# [3] = molecular target: GlcNAc(b1-3)[GlcNAc(b1-6)]GalNAc
# In short: as §1
# [4] = molecular target: GlcNAc(b1-4)Gal(b1-4)GlcNAc
# In short: as §1
# GlcNAc(b1-4)GlcNAc = molecular target: GlcNAc(b1-4)GlcNAc
# In short: as §1
# [5] = molecular target: GlcNAc(b1-4)GlcNAc(b1-4)GlcNAc
# In short: as §1
# [6] = molecular target: GlcNAc(b1-4)GlcNAc(b1-4)GlcNAc(b1-4)GlcNAc(b1-4)GlcNAc
# In short: as §1
# [7] = molecular target: GlcNAc(b1-4)GlcNAc(b1-4)GlcNAc(b1-4)GlcNAc(b1-4)GlcNAc(b1-4)GlcNAc
# In short: as §1
# [8] = molecular target: GlcNAc(b1-4)[GlcNAc(b1-6)]GalNAc
# In short: as §1
# [9] = molecular target: GlcNAc(b1-6)Gal(b1-4)GlcNAc
# In short: as §1
# GlcNAc(b1-6)GalNAc = molecular target: GlcNAc(b1-6)GalNAc
# In short: as §1
# [10] = molecular target: GlcNAc6S(b1-3)Gal(b1-4)GlcNAc
# In short: as §1
# Kdn(a2-3)Gal(b1-3)GalNAc = molecular target: Kdn(a2-3)Gal(b1-3)GalNAc
# In short: as §1
# Kdn(a2-3)Gal(b1-3)GlcNAc = molecular target: Kdn(a2-3)Gal(b1-3)GlcNAc
# In short: as §1
# Kdn(a2-3)Gal(b1-4)Glc = molecular target: Kdn(a2-3)Gal(b1-4)Glc
# In short: as §1
# Kdn(a2-3)Gal(b1-4)GlcNAc = molecular target: Kdn(a2-3)Gal(b1-4)GlcNAc
# In short: as §1
# [11] = molecular target: Kdn(a2-3)Gal(b1-4)[Fuc(a1-3)]GlcNAc
# In short: as §1
# Kdn(a2-6)Gal(b1-4)GlcNAc = molecular target: Kdn(a2-6)Gal(b1-4)GlcNAc
# In short: as §1
# [12] = molecular target: Man(a1-2)Man(a1-2)Man(a1-3)Man
# In short: as §1
# [13] = molecular target: Man(a1-2)Man(a1-2)Man(a1-6)[Man(a1-3)]Man
# In short: as §1
# Man(a1-2)Man(a1-3)Man = molecular target: Man(a1-2)Man(a1-3)Man
# In short: as §1
# [14] = molecular target: Man(a1-2)Man(a1-3)[Man(a1-2)Man(a1-6)]Man
# In short: as §1
# [15] = molecular target: Man(a1-2)Man(a1-3)[Man(a1-2)Man(a1-6)]Man(a1-6)[Man(a1-2)Man(a1-2)Man(a1-3)]Man
# In short: as §1
# [16] = molecular target: Man(a1-2)Man(a1-3)[Man(a1-2)Man(a1-6)]Man(a1-6)[Man(a1-2)Man(a1-2)Man(a1-3)]Man(b1-4)GlcNAc(b1-4)GlcNAc
# In short: as §1
# [17] = molecular target: Man(a1-2)Man(a1-3)[Man(a1-6)]Man(a1-6)[Man(a1-2)Man(a1-3)]Man(b1-4)GlcNAc(b1-4)GlcNAc
# In short: as §1
# [18] = molecular target: Man(a1-2)Man(a1-6)[Man(a1-3)]Man(a1-6)[Man(a1-2)Man(a1-2)Man(a1-3)]Man
# In short: as §1
# [19] = molecular target: Man(a1-2)Man(a1-6)[Man(a1-3)]Man(a1-6)[Man(a1-2)Man(a1-2)Man(a1-3)]Man(b1-4)GlcNAc(b1-4)GlcNAc
# In short: as §1
# Man(a1-3)[Man(a1-6)]Man = molecular target: Man(a1-3)[Man(a1-6)]Man
# In short: as §1
# [20] = molecular target: Man(a1-3)[Man(a1-6)]Man(a1-6)[Man(a1-2)Man(a1-3)]Man(b1-4)GlcNAc(b1-4)GlcNAc
# In short: as §1
# [21] = molecular target: Man(a1-3)[Man(a1-6)]Man(a1-6)[Man(a1-3)]Man
# In short: as §1
# [22] = molecular target: Man(a1-3)[Man(a1-6)]Man(a1-6)[Man(a1-3)]Man(b1-4)GlcNAc(b1-4)GlcNAc
# In short: as §1
# [23] = molecular target: Man(a1-3)[Man(a1-6)]Man(b1-4)GlcNAc(b1-4)GlcNAc
# In short: as §1
# [24] = molecular target: Man(a1-3)[Man(a1-6)]Man(b1-4)GlcNAc(b1-4)[Fuc(a1-6)]GlcNAc
# In short: as §1
# Man(a1-6)Man = molecular target: Man(a1-6)Man
# In short: as §1
# Man(b1-4)GlcNAc = molecular target: Man(b1-4)GlcNAc
# In short: as §1
# MurNAc(b1-4)GlcNAc = molecular target: MurNAc(b1-4)GlcNAc
# In short: as §1
# Neu5Ac(a2-3)Gal = molecular target: Neu5Ac(a2-3)Gal
# In short: as §1
binder,measurement,setting,value
B1,glycan array binding signal (z-score),GlcNAc(b1-3)Man,-0.226
same,glycan array binding signal (z-score),[1],-0.286
same,glycan array binding signal (z-score),[2],-0.542
same,glycan array binding signal (z-score),[3],-0.159
same,glycan array binding signal (z-score),[4],0.958
same,glycan array binding signal (z-score),GlcNAc(b1-4)GlcNAc,-0.081
same,glycan array binding signal (z-score),[5],-0.353
same,glycan array binding signal (z-score),[6],0.211
same,glycan array binding signal (z-score),[7],0.676
same,glycan array binding signal (z-score),[8],-0.319
same,glycan array binding signal (z-score),[9],-0.32
same,glycan array binding signal (z-score),GlcNAc(b1-6)GalNAc,-0.229
same,glycan array binding signal (z-score),[10],0.046
same,glycan array binding signal (z-score),Kdn(a2-3)Gal(b1-3)GalNAc,0.029
same,glycan array binding signal (z-score),Kdn(a2-3)Gal(b1-3)GlcNAc,-0.496
same,glycan array binding signal (z-score),Kdn(a2-3)Gal(b1-4)Glc,-0.287
same,glycan array binding signal (z-score),Kdn(a2-3)Gal(b1-4)GlcNAc,-0.356
same,glycan array binding signal (z-score),[11],0.156
same,glycan array binding signal (z-score),Kdn(a2-6)Gal(b1-4)GlcNAc,0.053
same,glycan array binding signal (z-score),[12],-0.4
same,glycan array binding signal (z-score),[13],-0.449
same,glycan array binding signal (z-score),Man(a1-2)Man(a1-3)Man,-0.356
same,glycan array binding signal (z-score),[14],-0.589
same,glycan array binding signal (z-score),[15],-0.638
same,glycan array binding signal (z-score),[16],0.161
same,glycan array binding signal (z-score),[17],-0.363
same,glycan array binding signal (z-score),[18],-0.276
same,glycan array binding signal (z-score),[19],-0.201
same,glycan array binding signal (z-score),Man(a1-3)[Man(a1-6)]Man,-0.292
same,glycan array binding signal (z-score),[20],-0.365
same,glycan array binding signal (z-score),[21],0.637
same,glycan array binding signal (z-score),[22],-0.004
same,glycan array binding signal (z-score),[23],-0.34
same,glycan array binding signal (z-score),[24],-0.181
same,glycan array binding signal (z-score),Man(a1-6)Man,7.42
same,glycan array binding signal (z-score),Man(b1-4)GlcNAc,0.25
same,glycan array binding signal (z-score),MurNAc(b1-4)GlcNAc,-0.518
same,glycan array binding signal (z-score),Neu5Ac(a2-3)Gal,-0.17

# From the supplement of paper PMC8728848
